The values that follow come from publication PMC12040169 (PLOS Biology, 2025).

The list shows a part of the results.

The assay relates to T1, C. trachomatis L2/434/Bu expressing GFP (CTL2-GFP).
T1 construct: L2/434/Bu GFP intracellular growth in HeLa cells
On the set-up: species or system HeLa; C. trachomatis total inclusion area by high-content imaging, normalised to DMSO. Particulars: total inclusion area; 28.5 h, 10 µM; inhibitor. The method, boiled down: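 Following bulk GFP and resorufin fluorescence reads, infected cells were fixed, Hoechst-stained and imaged on a high-content platform. Inclusion total area and number per well served as growth proxies; nuclei counts indicated host viability. MICs were derived as for the fluorescence assay.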
For `CSc1nc2n(n1)C(C)C1=C(CCCC1=O)N2` (stereo not shown) [CBK288169], the “% of control remaining” value was 86.282.
Then `COc1ccc(Cc2nc(C3CC3)n(CC(F)(F)F)n2)cc1` [CBK307686], with 43.8128.
On to `CCCN1C(=O)c2ccc(C(=O)Nc3cc(C(=O)O)cc(C(=O)O)c3)cc2C1=O` [CBK266441], for which the “% of control remaining” value came out at 117.713.
Regarding `CC(C)c1csc(NC(=O)CC2CCN(C(=O)CC3CCCCC3)CC2)n1` [CBK285963], the “% of control remaining” value came out at 114.367.
Then `CCCCCOc1ccc(Nc2cc(-c3ccccc3N(C)C)ncn2)cc1` [CBK090890], with 64.2843; and `COc1ccc(N2CCN(c3cc(-c4cccc5ccccc45)ncn3)CC2)cc1OC` [CBK091022], with 16.1322.
`COc1ccc(-c2nc(C3CCNCC3)n3ccccc23)cc1` [CBK035971]: the “% of control remaining” value came out at 84.1489.
Then `O=C(Nc1sc2c(c1C(=O)NCC1CCCO1)CCCC2)c1ccccc1[N+](=O)[O-]` (stereo not shown) [CBK264608], with 100.51.
Take `Cc1ccc(-c2csc3ncnc(Cl)c23)cc1` [CBK287765]: the “% of control remaining” value was found to be 34.1609.
With `Cc1cc(C(C)(C)C)oc1C(=O)N1CCn2c(nnc2C2CC2)C1` [CBK283771] the figure was 93.5416.
With `O=C(Nc1ccccc1C(F)(F)F)N1CCN(c2ccccc2Cl)CC1` [CBK045081] the figure was 96.9567.
On to `Cc1c(C(=O)NCc2cc(C3CC3)[nH]n2)[nH]c2c(Cl)cccc12` [CBK282533], for which the “% of control remaining” value was 123.577.
Then `Nc1csc(C2CCOCC2)n1` [CBK019258], with 94.5066.
Turning to `CCc1cccc(NC(=O)CCc2ccccc2)c1` [CBK263637], the “% of control remaining” value was determined as 72.2663.
Then `COc1ccc(S(=O)(=O)Nc2nccnc2-c2ccc(CN3C(=O)CCC3=O)cc2)cc1` [CBK050699], with 75.266; and `OC1(c2cccnc2F)CCN(Cc2cccc(F)c2F)CC1` [CBK284375], with 69.7826; and `Cc1nc2n(n1)C1=CC(C)(C)CC(=O)C1=NN2` [CBK019050], with 78.674.
With `O=C(Cc1cc(Cl)ccc1C(F)(F)F)Nc1ccc2ncccc2c1` [CBK159802] the figure was 104.224.
With `CC(Sc1nc(-c2cccnc2)ccc1C#N)C(=O)O` (stereo not shown) [CBK267452] the figure was 116.956.
`CN(C)/C=N/c1nc(=O)n([C@H]2CC(O)[C@@H](CO)O2)cc1/C=C/C(=O)NCCCCCCNC(=O)C(F)(F)F` (stereo partly shown) [CBK201330]: the “% of control remaining” value came to 92.0153.
With `Cc1noc(C)c1NC(=O)c1nccc2ccccc12` [CBK200310] the figure was 88.1127; with `Cc1cc(C)nc(Nc2n[nH]c(COc3ccccc3)n2)n1` [CBK268016], 105.451.
Then `Cc1ccc(Nc2nc(N(C)C)nc3[nH]ncc23)cc1` [CBK288098], with 92.5966.
Then `N#Cc1ccccc1CSc1nc(N2CCOCC2)nc(N2CCOCC2)n1` [CBK268998], with 115.742.
Take `Cc1cc(C)n(-c2nc3ccccc3nc2N2CCN(S(=O)(=O)c3ccc4ccccc4c3)CC2)n1` [CBK269134]: the “% of control remaining” value came to 89.5949.
Then `Cc1ccc(-c2cc(C(=O)NCc3cccnc3)c3ccccc3n2)cc1C` [CBK265402], with 113.659; and `COc1cc(C(=O)NC(C)C(=O)NN)cc(OC)c1OC` (stereo not shown) [CBK262609], with 109.237.
With `COc1cc(Nc2cc(-n3nc(C)cc3C)ncn2)cc(OC)c1OC` [CBK288594] the figure was 101.33; with `CCOC(=O)CSC/C(=N/Nc1ccccc1)c1cccs1` [CBK006956], 76.5641.
Then `O=C(c1ccco1)N1CCC[C@@H]1[C@@H](O)c1cccs1` [CBK284291], with 78.5718; and `CC1CCN(Cc2c(O)ccc3c(=O)c(-c4cccc(Cl)c4)c(C(F)(F)F)oc23)CC1` [CBK266258], with 154.197; and `N#Cc1ccccc1CSc1nnc(-c2ccco2)n1-c1ccccc1` [CBK267270], with 86.7834.
As for `COc1ccc(C(=O)N2CC[C@@H]3NC(=O)[C@H]4C[C@H](NC(=O)C5CCC5)CN4C(=O)[C@H]32)cc1` [CBK289268], the “% of control remaining” value is on record as 87.5478.
Then `Cc1ccsc1C(=O)Nc1ncn(CC(=O)N2CCCCCC2)n1` [CBK304192], with 19.1821; and `O=C(Cn1cc(Br)ccc1=O)NC1CCN(Cc2ccccn2)CC1` [CBK305686], with 80.9483.
With `CNC(=O)C1(Cc2ccccc2-c2ccccc2C)CCN(C(=O)Cc2ccccc2)CC1` [CBK285901] the figure was 96.2499; with `COc1cc(C2(O)CCN(Cc3ccccc3)C2)ccc1OCc1ccccc1` (stereo not shown) [CBK045620], 54.0808; with `N#CC(C(N)=O)C(c1ccc(Br)cc1)c1c(-c2ccccc2)nn(-c2nc(-c3ccccc3)cs2)c1O` (stereo not shown) [CBK262697], 87.7811.
`C=CCOCc1cc(O)n2nc(SC)c(C(N)=O)c2n1` [CBK008592]: the “% of control remaining” value came to 85.9643.
With `CN1CCN(CCC(=O)N/N=C/c2ccc(O)cc2O)CC1` [CBK262849] the figure was 70.1405.
Then `CC(=O)Nc1cccc(C(=O)N2CCCC2c2ccncc2)c1` (stereo not shown) [CBK305080], with 75.1318; and `OC(COCc1ccc2c(c1)OCO2)CN1CCN(c2ccccn2)CC1` (stereo not shown) [CBK278246C], with 102.37.
As for `O=C1NC[C@@H](CCC(=O)N2CCCCC2)N2C[C@@H](NS(=O)(=O)c3ccccc3)C[C@@H]12` [CBK289012], the “% of control remaining” value was 103.957.
On to `C[C@@H]1CN(C)CCN1c1nccnc1OCCOc1cccnc1OCCCCCN(C)C` [CBK051566], for which the “% of control remaining” value amounted to 63.6006.
With `O=c1[nH]c2ncc(-c3ccco3)nc2n1Cc1ccccn1` [CBK064349], the “% of control remaining” value is reported as 103.33.
With `CCOC(=O)c1ccc(-n2sc3ccccc3c2=O)cc1` [CBK115552] the figure was 94.0178; with `Cn1c(=O)n(C)c2cc(CNC(=O)C3NCCc4[nH]cnc43)ccc21` (stereo not shown) [CBK307274], 77.9794.
With `CC(Oc1ccccc1)c1nnc(SCC(=O)Nc2ccc(Br)cc2F)n1C` (stereo not shown) [CBK266364] the figure was 91.7178.
Then `CCCC(=O)c1ccc(S(=O)(=O)N2CCCN(Cc3cccnc3N3CCOCC3)CC2)cc1` [CBK062900], with 73.2123.
`CCn1c(C)nnc1SCCNc1cc(C)nc2ccnn12` [CBK306607]: the “% of control remaining” value is reported as 62.5598.
In the case of `COc1ccc(C(=O)C2=C(O)C(=O)N(CCN(C)C)C2c2cccc([N+](=O)[O-])c2)cc1Cl` (stereo not shown) [CBK266474], the “% of control remaining” value is listed as 104.382.
Then `c1ccc2c(c1)CCN2c1ncnc2c1nc1n2CCCCC1` [CBK291119], with 105.001; and `CCN1CCN(C(=O)C2CCCCC2C(=O)O)CC1` (stereo not shown) [CBK270337], with 82.7529; and `COc1ccc(Oc2ncnc3c2[nH]c2ccccc23)cc1` [CBK291254], with 87.8306.
As to `O=C(NCc1cccs1)C1CCCN1c1nc(O)cc(C(F)(F)F)n1` (stereo not shown) [CBK004299], the “% of control remaining” value was 93.7172.
With `Cn1cc(NC(=O)CCn2c(C(F)F)cc3cccnc32)cn1` [CBK284740] the figure was 102.132; with `COC(=O)[C@@H]1Cc2ncn(C)c2CN1S(=O)(=O)c1ccc(C#N)cc1` [CBK288993], 111.642.
With `O=C(CC1SC(NC2CCCCCC2)=NC1=O)NCc1c(F)cccc1Cl` (stereo not shown) [CBK067656] the figure was 79.6313; with `Cn1c(SCC(=O)NCCCN2CCOCC2)nc2ccccc2c1=O` [CBK287607], 115.748; with `CCOc1cc(O)c(-c2nc(N)ncc2-c2ccc3c(c2)OCCO3)cc1CC` [CBK288174], 125.17.
With `C[C@@H]1CNCCN1c1cc(C(F)(F)F)cc(OCc2ccccc2)n1` [CBK026755] the figure was 48.6459; with `CCNCCNc1ccc([N+](=O)[O-])cc1` [CBK264179C], 119.579; with `Cc1noc(C)c1NC(=O)c1cncnc1` [CBK200382], 98.6111.
Consider `O=C1CSC(c2cccc(Cl)c2Cl)N1C1CCCCC1` (stereo not shown) [CBK020678], for which the “% of control remaining” value is given as 79.3857.
As to `CN(C)CCN(C)c1ccc(-c2cc3ccccc3o2)cn1` [CBK036820], the “% of control remaining” value is reported as 72.153.
Then `Nc1cc(O)nc(SCC(=O)N2CCN(C(c3ccccc3)c3ccccc3)CC2)n1` [CBK268014], with 96.0219; and `O=C(O)CCn1c2ccc(Cl)cc2c2cc(Cl)ccc21` [CBK261415], with 116.36.
With `CN1CCN(C2c3ccccc3Oc3ccccc32)CC1` [CBK066891], the “% of control remaining” value came to 111.166.
With `Cc1oc2ccc(O)cc2c1C(=O)N(C)C(C)Cc1ccccn1` (stereo not shown) [CBK282627] the figure was 106.227; with `OCc1ccc(-c2nccnc2NCCc2c[nH]c3ccccc23)cc1` [CBK038004], 141.115; with `O=C(O)c1cccc(-c2cncc(NCc3ccncc3)n2)c1` [CBK037915], 85.9815.
With `O=c1oc2ccccc2c2nc(-c3ccncc3)ncc12` [CBK288536] the figure was 84.9803; with `Cc1[nH]c2ccccc2c1/C=C1/C(=N)N2C(SCc3ccccc3)=NSC2=NC1=O` [CBK265291], 105.086; with `S=c1[nH]nc(Cn2ccc(-c3ccccc3)n2)o1` [CBK022019], 72.4018.
With `O=C1/C(=N\Nc2ccc([N+](=O)[O-])cc2[N+](=O)[O-])c2ccccc2N1CN1CCCCC1` [CBK260926] the figure was 92.2267; with `CCOC(=O)c1ccccc1NC(=O)N[C@@H]1CC[C@@]2(c3ccc(OC)c(OC)c3)CCN(C)[C@H]2C1` [CBK047494T], 89.4796; with `O=C(Cn1cc(C(=O)NCc2ccccc2)ccc1=O)Nc1cc(F)ccc1N1CCCC1` [CBK285998], 0.
In the case of `Cc1ccc2oc(-c3cc(NC(=O)Cn4cnc5c(=O)n(C)c(=O)n(C)c54)ccc3O)nc2c1` [CBK267112], the “% of control remaining” value is 90.7625.
Then `CCn1c2ccccc2c2cc(Nc3cc(-c4cccc5ccccc45)ncn3)ccc21` [CBK090834], with 33.0869.
